Data published in PubChem BioAssay AID1963576 (National Center for Advancing Translational Sciences (NCATS), 2024).
About 60 (0.1%) of roughly 46,000 compounds were called active. Roughly 3% stayed inconclusive and do not appear here. The call rests on the fitted dose curve; in most records, active means well fitted inhibition curve with a large enough effect; inconclusive means small, poorly fitted or top-dose-only effect; inactive means no such curve, though single readings can be large or run the other way. The list shows a part of the results.

Assay: Primary qHTS assay for Inhibitors of ovarian cancer metastasis using an organotypic tumor microenvironment (TME) model. Further: nearly all actives have a fitted effect of over 65% in size.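 On activity change, negative = inhibition: plate controls were DMSO wells for no effect and tomatine positive control wells for full effect.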
Details: SKOV3ip1-GFP adhesion/invasion on 3D omental model, fluorescence; series mostly up to 45.8 µM; activity change, negative = inhibition: at the top concentration
In short: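 A 3D layer of primary human omental fibroblasts, mesothelial cells, fibronectin and collagen I, grown 48 hr, received SKOV3ip1-GFP cells in serum-free medium plus compounds at 0.36-46 umol/L. After 2 hr RT and 16 hr 37 C, fixed adherent GFP cells were counted; normalized to DMSO and tomatine.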

Activity change, negative = inhibition, inactive:
CCC(C)NC(=O)CSCc1nc(-c2ccc(C)cc2)oc1C (stereo not given) 0.293%
O=C(c1ccccc1Br)N(Cc1ccccc1F)C1CCS(=O)(=O)C1 (stereo not given) -4.58%
Cn1nnnc1SCCCNCc1ccccc1OCc1ccc(F)cc1 1.93%
COc1cccc(-c2nc(SCc3cccc(Br)c3)n3[nH]c(=O)cc3n2)c1 27.7%
COc1ccccc1N1CCN(c2ccc(=O)n(CC(=O)Nc3cc(F)ccc3C)n2)CC1 25.6%
COc1cc2c(cc1OC)C(c1ccc(Cl)cc1)N(c1cccc(C#N)c1)C(=O)C2 (stereo not given) -3.98%
COc1ccccc1NC(=O)c1oc2ccccc2c1NC(=O)Cc1cccs1 -24.2%
CC(=O)N1CCc2c(sc3c2c(=O)n(CCc2ccccc2)c(=O)n3CC(=O)Nc2ccccc2F)C1 -0.132%
Cc1ccccc1Nc1sc(C(=O)c2ccccc2)c(N)c1S(C)(=O)=O -0.0587%
Cc1c(CC(=O)N2CCCCC2)c(=O)oc2cc(O)ccc12 7.04%
Cn1cc(S(=O)(=O)N2CCCCCC2)cc1C(=O)N1CCN(c2ccccc2F)CC1 23.7%
COc1ccc2c(Sc3ccc(C)cc3)c(C(=O)NCC(C)c3ccccc3)[nH]c2c1 (stereo not given) 4.89%
CCOC(=O)c1ccc(N2CC3=C(C2=O)C(c2ccc(OC)cc2)NC(=O)N3C)cc1 (stereo not given) 10.4%
Cc1ccc(-c2nc3cc(NC(=O)Cc4ccc(Cl)cc4)ccc3o2)cc1 -0.314%
Cc1cc(NC(=O)CSc2nc(-c3cccc(F)c3)nc3c2c(=O)n(C)c(=O)n3C)no1 12.1%
C[C@H](NC(=O)Cc1cc(F)cc(F)c1)C(=O)N[C@H](C(=O)OC(C)(C)C)c1ccccc1 19.7%
Cc1ccc(CNC(=O)c2cc3c(=O)oc4ccc(C)cc4c3s2)cc1 5.14%
COc1ccccc1-c1nc2c(c(SCc3cc(C)ccc3C)n1)Cc1c(CO)cnc(C)c1O2 2.66%
Cc1cccc(OCC(=O)Nc2ccc(S(=O)(=O)Nc3onc(C)c3C)cc2)c1C 2.55%
COc1ccc(CNC(=O)c2cc3sccc3n2Cc2ccc(F)cc2)cc1 -0.615%
COCCCN1C(=O)c2[nH]nc(-c3cc(C)ccc3O)c2C1c1ccc(F)cc1 (stereo not given) -12.4%
CN(C)c1ccc(O)c2c1C[C@H]1C[C@H]3[C@H](N(C)C)C(=O)C(C(N)=O)=C(O)[C@@]3(O)C(=O)C1=C2O -11.1%
CCOC(=O)c1ccc(OC(=O)c2cn(-c3ccc(C)cc3)c(=O)c3ccccc23)cc1 2.06%
CCc1nnc(NC(=O)CSc2nc3c([nH]c4ccccc43)c(=O)n2-c2ccc(F)cc2)s1 9.44%
Cc1ccccc1NC(=O)CSc1nc2ccc(NC(=O)CCc3ccccc3)cc2s1 -5.53%
COC(=O)c1sccc1S(=O)(=O)N(CC(=O)Nc1ccccc1C)c1ccc(Cl)cc1 5.98%
Cc1cccn2c(=O)cc(COc3ccc(NC(=O)C(C)C)cc3)nc12 -2.18%
Nc1ccc2oc(-c3ccccc3Br)nc2c1 2.82%
Cc1ccc(-n2nc(C)c3c(C)cc(=O)n(CC(=O)Nc4cc(Cl)ccc4C)c32)cc1 2.63%
Cc1cc(NS(=O)(=O)c2cn(C)c(C)n2)ccc1Br 23.8%
COc1cccc(C(=O)COC(=O)c2cc(-c3cccs3)nc3ccccc23)c1 0.357%
Cc1nc(-c2ccc(S(=O)(=O)NCc3ccc(F)cc3)cc2)co1 -10.6%
COc1ccc(C(=O)NCc2nc(-c3cccc(C)c3)no2)cc1OC 0.0309%
CCc1ccccc1NC(=O)C1CCN(c2nc3ccccc3[nH]2)CC1 4.87%
Cc1ccc(-n2nc(C)c(C(=O)NCCCN3CCN(c4cccc(Cl)c4)CC3)c2-n2cccc2)cc1 -20.3%
COc1cccc(CNC(=O)CCc2c(C)nc3c4c(C)cc(C)nc4nn3c2C)c1 -6.04%
Cc1ccccc1OCC(=O)Nc1nnc(SCc2cc(=O)n3cc(Cl)ccc3n2)s1 0.817%
O=C(Nc1ccc(Oc2ccccc2)cc1)c1ccc(F)c(S(=O)(=O)N2CCN(c3ccccc3F)CC2)c1 13.9%

outcome, inactive:
Cc1cccc(NS(=O)(=O)c2ccc3c(c2)CCN3C(=O)C2CC2)c1C
O=C(Cn1c(=O)ccc2cc(S(=O)(=O)N3CCCC3)ccc21)Nc1ccc(Cl)cc1
O=C(CCc1ccccc1)NCc1ccc2c(c1)CCN2C(=O)c1ccccc1
Nc1c(C(=O)Nc2ccc(C(F)(F)F)cc2)sc2nc(-c3cccs3)ccc12
COc1ccc(-n2c(SCC(=O)c3ccc(Cl)cc3)nc3c([nH]c4ccccc43)c2=O)cc1
CCc1ccc(NC(=O)CN2C(=O)C3CCCN3c3ccc(S(=O)(=O)N(CC)CC)cc32)cc1 (stereo not given)
COc1ccc(CCNc2ncnc3onc(-c4ccc(Cl)cc4)c23)c(OC)c1
CCc1ccc(NC(=O)Cn2c(=O)n(CCCC(=O)NCc3ccccc3Cl)c(=O)c3ccccc32)cc1
COc1ccc2oc(=O)c(C(=O)NCCc3c(C)[nH]c4ccc(C)cc34)cc2c1
COc1ccccc1NC(=O)Cn1cnc2ccc(S(=O)(=O)N3CCC(C)CC3)cc2c1=O
COc1ccc(N(CC(=O)N2CCN(c3ccccc3F)CC2)S(=O)(=O)c2c(C)noc2C)cc1
Cc1ccccc1NC(=O)C(Cc1ccccc1)N1Cc2ccccc2C1=O (stereo not given)
O=C(Nc1noc2ccccc12)c1cccc(Cl)c1Cl
Cc1ccc(NC(=O)C2CCCN(C(=O)c3cnn(-c4ccccc4)c3-n3cccc3)C2)cc1 (stereo not given)
COc1ccc(NC(=O)Cn2c(=O)n(Cc3ccco3)c(=O)c3sc4ccccc4c32)c(OC)c1
Cc1nn(-c2ccccc2)c(-n2cccc2)c1C(=O)N1CCN(c2ccccc2)CC1
Cc1cc(OCC(=O)N(Cc2ccc(N(C)C)cc2)Cc2ccco2)cc(C)c1Cl
Cc1c(Cl)cccc1NC(=O)c1cc(S(=O)(=O)N2CCCCC2)cn1C
COc1ccccc1/C=C/c1onc(C)c1S(=O)(=O)N1CCC(C(=O)N2CCC(C)CC2)CC1
Cc1ccc2oc(=O)c3cc(C(=O)Nc4ccc(C)c(F)c4)sc3c2c1
Cc1ccc(CCNc2nc3ccccc3c3nc(-c4cccnc4)nn23)cc1
Cc1ccc(C)c(CN2C(=O)c3ccccc3S(=O)(=O)c3ccc(C(=O)NCCc4ccc(Cl)cc4)cc32)c1
